# Experimental data: the supplement of paper PMC8728848
# This is one part of the list.
# B1: NanI (Corynebacterium diphtheriae), C6JSW7 (protein)
# chain: MTNTLESNPMTTTTGALTITFATTCDGPLAHIPHHLDLNIIHGRIQGTTAHRRIDAEDPDGLDDGLPHHLCLSVDTTGTHLFIDGYEAFSTTQTEWFDTSELTLNPHGDLTIIDHQILNHAPTPRQARNLAPAAEPLVWFAGSHLSTRDTQRISHLTHGSLRLLMKTRGTGQGGVAFQAHTINGDLTLEIIDGTLIFSVRCHDEDYVRITAPGRWDDGQIYDVVIVCGRGATDIYVDGQQLIHSPGAAFFNDLSGELSVHIGTAASGVRLFGEVQSGMIYPHVFNHHQVQRLATVEPIATQALFDCLLDGAQSYRIPSLITTDSGVIIAGADKRVSIANDAPNDIDFVLRRSVDGGRTWQPPRTILQLPDTACVTDSVLLQDHTTGRIFAFLDQFPAGIGQPNAAFGTGFDADGNRIGHFADGSTCTMPREVDQLEASFFSDPHTAPPGIVFQHPSCHLWMLTSDDDGLTWSTPRDLTPDVKEEWMRFCGTSPGNGIQLQRDTHAGRLLIPMYYTKGDQFFAAALYSDDHGDTWHRGESPDLEMYESTLVEASDGSVLLWARNQHPSGAVAHARSTDGGHSWSQVTFNPNVPEIFSQPNALRVTNPDGIIFANASQLLPFRGRGVLRMSTNDGASWQHNRVFNPRHYVYQCMTQLPDGSIGLLWEREMQGLFFSIIPMTWIMQGYAL
# Experiments:
# Test in all cases: glycan array binding signal (z-score within array); higher = stronger binding
# Settings in all cases: glycan notation: IUPAC condensed, linker removed
# GlcNAc(b1-3)Gal(b1-4)Glc = molecular target: GlcNAc(b1-3)Gal(b1-4)Glc
# In short: (§1)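 Glycan array binding is given as a within-array Z-score, which can be read as non-binding when negative. The arrays, 3228 of them, came from the Consortium for Functional Glycomics database and were retained only where the protein sequence was available. Z-scores were averaged across arrays of the same protein sequence at different concentrations or buffers and across linkers.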
# [1] = molecular target: GlcNAc(b1-3)Gal(b1-4)GlcNAc
# In short: as §1
# [2] = molecular target: GlcNAc(b1-3)Gal(b1-4)GlcNAc(b1-3)Gal(b1-4)GlcNAc
# In short: as §1
# GlcNAc(b1-3)GalNAc = molecular target: GlcNAc(b1-3)GalNAc
# In short: as §1
# GlcNAc(b1-3)Man = molecular target: GlcNAc(b1-3)Man
# In short: as §1
# [3] = molecular target: GlcNAc(b1-3)[GlcNAc(b1-4)][GlcNAc(b1-6)]GlcNAc
# In short: as §1
# [4] = molecular target: GlcNAc(b1-3)[GlcNAc(b1-6)]Gal(b1-4)GlcNAc
# In short: as §1
# [5] = molecular target: GlcNAc(b1-3)[GlcNAc(b1-6)]GalNAc
# In short: as §1
# [6] = molecular target: GlcNAc(b1-4)Gal(b1-4)GlcNAc
# In short: as §1
# GlcNAc(b1-4)GlcNAc = molecular target: GlcNAc(b1-4)GlcNAc
# In short: as §1
# [7] = molecular target: GlcNAc(b1-4)GlcNAc(b1-4)GlcNAc
# In short: as §1
# [8] = molecular target: GlcNAc(b1-4)GlcNAc(b1-4)GlcNAc(b1-4)GlcNAc(b1-4)GlcNAc
# In short: as §1
# [9] = molecular target: GlcNAc(b1-4)GlcNAc(b1-4)GlcNAc(b1-4)GlcNAc(b1-4)GlcNAc(b1-4)GlcNAc
# In short: as §1
# [10] = molecular target: GlcNAc(b1-4)[GlcNAc(b1-6)]GalNAc
# In short: as §1
# [11] = molecular target: GlcNAc(b1-6)Gal(b1-4)GlcNAc
# In short: as §1
# GlcNAc(b1-6)GalNAc = molecular target: GlcNAc(b1-6)GalNAc
# In short: as §1
# GlcNAc3Prop(b1-4)GlcNAc = molecular target: GlcNAc3Prop(b1-4)GlcNAc
# In short: as §1
# [12] = molecular target: GlcNAc6S(b1-3)Gal(b1-4)GlcNAc
# In short: as §1
# Kdn(a2-3)Gal(b1-3)GalNAc = molecular target: Kdn(a2-3)Gal(b1-3)GalNAc
# In short: as §1
# Kdn(a2-3)Gal(b1-3)GlcNAc = molecular target: Kdn(a2-3)Gal(b1-3)GlcNAc
# In short: as §1
# Kdn(a2-3)Gal(b1-4)Glc = molecular target: Kdn(a2-3)Gal(b1-4)Glc
# In short: as §1
# Kdn(a2-3)Gal(b1-4)GlcNAc = molecular target: Kdn(a2-3)Gal(b1-4)GlcNAc
# In short: as §1
# [13] = molecular target: Kdn(a2-3)Gal(b1-4)[Fuc(a1-3)]GlcNAc
# In short: as §1
# Kdn(a2-6)Gal(b1-4)GlcNAc = molecular target: Kdn(a2-6)Gal(b1-4)GlcNAc
# In short: as §1
# [14] = molecular target: Man(a1-2)Man(a1-2)Man(a1-3)Man
# In short: as §1
# [15] = molecular target: Man(a1-2)Man(a1-2)Man(a1-6)[Man(a1-3)]Man
# In short: as §1
# Man(a1-2)Man(a1-3)Man = molecular target: Man(a1-2)Man(a1-3)Man
# In short: as §1
# [16] = molecular target: Man(a1-2)Man(a1-3)[Man(a1-2)Man(a1-6)]Man
# In short: as §1
# [17] = molecular target: Man(a1-2)Man(a1-3)[Man(a1-2)Man(a1-6)]Man(a1-6)[Man(a1-2)Man(a1-2)Man(a1-3)]Man
# In short: as §1
# [18] = molecular target: Man(a1-2)Man(a1-3)[Man(a1-2)Man(a1-6)]Man(a1-6)[Man(a1-2)Man(a1-2)Man(a1-3)]Man(b1-4)GlcNAc(b1-4)GlcNAc
# In short: as §1
# [19] = molecular target: Man(a1-2)Man(a1-3)[Man(a1-6)]Man(a1-6)[Man(a1-2)Man(a1-3)]Man(b1-4)GlcNAc(b1-4)GlcNAc
# In short: as §1
# [20] = molecular target: Man(a1-2)Man(a1-6)[Man(a1-3)]Man(a1-6)[Man(a1-2)Man(a1-2)Man(a1-3)]Man
# In short: as §1
# [21] = molecular target: Man(a1-2)Man(a1-6)[Man(a1-3)]Man(a1-6)[Man(a1-2)Man(a1-2)Man(a1-3)]Man(b1-4)GlcNAc(b1-4)GlcNAc
# In short: as §1
# Man(a1-3)[Man(a1-6)]Man = molecular target: Man(a1-3)[Man(a1-6)]Man
# In short: as §1
# [22] = molecular target: Man(a1-3)[Man(a1-6)]Man(a1-6)[Man(a1-2)Man(a1-3)]Man(b1-4)GlcNAc(b1-4)GlcNAc
# In short: as §1
# [23] = molecular target: Man(a1-3)[Man(a1-6)]Man(a1-6)[Man(a1-3)]Man
# In short: as §1
# [24] = molecular target: Man(a1-3)[Man(a1-6)]Man(a1-6)[Man(a1-3)]Man(b1-4)GlcNAc(b1-4)GlcNAc
# In short: as §1
# [25] = molecular target: Man(a1-3)[Man(a1-6)]Man(b1-4)GlcNAc(b1-4)GlcNAc
# In short: as §1
# Man(a1-6)Man = molecular target: Man(a1-6)Man
# In short: as §1
# Man(b1-4)GlcNAc = molecular target: Man(b1-4)GlcNAc
# In short: as §1
# Neu5Ac(a2-3)Gal = molecular target: Neu5Ac(a2-3)Gal
# In short: as §1
# [26] = molecular target: Neu5Ac(a2-3)Gal(b1-3)GalNAc
# In short: as §1
# [27] = molecular target: Neu5Ac(a2-3)Gal(b1-3)GalNAc(b1-3)Gal(a1-4)Gal(b1-4)Glc
# In short: as §1
# [28] = molecular target: Neu5Ac(a2-3)Gal(b1-3)GalNAc(b1-4)[Neu5Ac(a2-3)]Gal(b1-4)Glc
# In short: as §1
# [29] = molecular target: Neu5Ac(a2-3)Gal(b1-3)GalNAc(b1-4)[Neu5Ac(a2-8)Neu5Ac(a2-3)]Gal(b1-4)Glc
# In short: as §1
# [30] = molecular target: Neu5Ac(a2-3)Gal(b1-3)GalNAc6S
# In short: as §1
# [31] = molecular target: Neu5Ac(a2-3)Gal(b1-3)GlcNAc
# In short: as §1
# [32] = molecular target: Neu5Ac(a2-3)Gal(b1-3)GlcNAc(b1-3)Gal(b1-3)GlcNAc
# In short: as §1
# [33] = molecular target: Neu5Ac(a2-3)Gal(b1-3)GlcNAc(b1-3)Gal(b1-4)GlcNAc
# In short: as §1
# [34] = molecular target: Neu5Ac(a2-3)Gal(b1-3)GlcNAc(b1-3)GalNAc
# In short: as §1
# [35] = molecular target: Neu5Ac(a2-3)Gal(b1-3)GlcNAc6S
# In short: as §1
# [36] = molecular target: Neu5Ac(a2-3)Gal(b1-3)[Fuc(a1-4)]GlcNAc
# In short: as §1
# [37] = molecular target: Neu5Ac(a2-3)Gal(b1-3)[Fuc(a1-4)]GlcNAc(b1-3)Gal(b1-3)[Fuc(a1-4)]GlcNAc
# In short: as §1
# [38] = molecular target: Neu5Ac(a2-3)Gal(b1-3)[Fuc(a1-4)]GlcNAc(b1-3)Gal(b1-4)[Fuc(a1-3)]GlcNAc
# In short: as §1
# [39] = molecular target: Neu5Ac(a2-3)Gal(b1-3)[Neu5Ac(a2-3)Gal(b1-4)]GlcNAc
# In short: as §1
# [40] = molecular target: Neu5Ac(a2-3)Gal(b1-3)[Neu5Ac(a2-6)]GalNAc
# In short: as §1
# Neu5Ac(a2-3)Gal(b1-4)Glc = molecular target: Neu5Ac(a2-3)Gal(b1-4)Glc
# In short: as §1
# [41] = molecular target: Neu5Ac(a2-3)Gal(b1-4)GlcNAc
# In short: as §1
# [42] = molecular target: Neu5Ac(a2-3)Gal(b1-4)GlcNAc(b1-2)Man(a1-3)[GlcNAc(b1-2)Man(b1-4)GlcNAc(b1-2)Man(a1-6)]Man(b1-4)GlcNAc(b1-4)GlcNAc
# In short: as §1
# [43] = molecular target: Neu5Ac(a2-3)Gal(b1-4)GlcNAc(b1-2)Man(a1-3)[Neu5Ac(a2-6)Gal(b1-4)GlcNAc(b1-2)Man(a1-6)]Man(b1-4)GlcNAc(b1-4)GlcNAc
# In short: as §1
binder,measurement,setting,value
B1,glycan array binding signal (z-score),GlcNAc(b1-3)Gal(b1-4)Glc,0.156
same,glycan array binding signal (z-score),[1],-0.35
same,glycan array binding signal (z-score),[2],-0.274
same,glycan array binding signal (z-score),GlcNAc(b1-3)GalNAc,-0.645
same,glycan array binding signal (z-score),GlcNAc(b1-3)Man,-0.474
same,glycan array binding signal (z-score),[3],-0.25
same,glycan array binding signal (z-score),[4],-0.88
same,glycan array binding signal (z-score),[5],-0.477
same,glycan array binding signal (z-score),[6],0.129
same,glycan array binding signal (z-score),GlcNAc(b1-4)GlcNAc,-0.681
same,glycan array binding signal (z-score),[7],-0.532
same,glycan array binding signal (z-score),[8],-1.05
same,glycan array binding signal (z-score),[9],-0.209
same,glycan array binding signal (z-score),[10],0.745
same,glycan array binding signal (z-score),[11],-0.307
same,glycan array binding signal (z-score),GlcNAc(b1-6)GalNAc,0.642
same,glycan array binding signal (z-score),GlcNAc3Prop(b1-4)GlcNAc,-1.09
same,glycan array binding signal (z-score),[12],0.261
same,glycan array binding signal (z-score),Kdn(a2-3)Gal(b1-3)GalNAc,0.118
same,glycan array binding signal (z-score),Kdn(a2-3)Gal(b1-3)GlcNAc,0.075
same,glycan array binding signal (z-score),Kdn(a2-3)Gal(b1-4)Glc,0.245
same,glycan array binding signal (z-score),Kdn(a2-3)Gal(b1-4)GlcNAc,-0.702
same,glycan array binding signal (z-score),[13],-0.642
same,glycan array binding signal (z-score),Kdn(a2-6)Gal(b1-4)GlcNAc,0.008
same,glycan array binding signal (z-score),[14],-0.488
same,glycan array binding signal (z-score),[15],-0.448
same,glycan array binding signal (z-score),Man(a1-2)Man(a1-3)Man,-0.381
same,glycan array binding signal (z-score),[16],1.3
same,glycan array binding signal (z-score),[17],0.157
same,glycan array binding signal (z-score),[18],-0.074
same,glycan array binding signal (z-score),[19],0.84
same,glycan array binding signal (z-score),[20],-0.202
same,glycan array binding signal (z-score),[21],1.28
same,glycan array binding signal (z-score),Man(a1-3)[Man(a1-6)]Man,-0.452
same,glycan array binding signal (z-score),[22],0.959
same,glycan array binding signal (z-score),[23],-0.783
same,glycan array binding signal (z-score),[24],-0.413
same,glycan array binding signal (z-score),[25],-0.676
same,glycan array binding signal (z-score),Man(a1-6)Man,-0.967
same,glycan array binding signal (z-score),Man(b1-4)GlcNAc,-0.504
same,glycan array binding signal (z-score),Neu5Ac(a2-3)Gal,-0.471
same,glycan array binding signal (z-score),[26],0.181
same,glycan array binding signal (z-score),[27],-0.203
same,glycan array binding signal (z-score),[28],-0.56
same,glycan array binding signal (z-score),[29],0.306
same,glycan array binding signal (z-score),[30],-0.092
same,glycan array binding signal (z-score),[31],-0.073
same,glycan array binding signal (z-score),[32],-0.243
same,glycan array binding signal (z-score),[33],-1.14
same,glycan array binding signal (z-score),[34],-0.319
same,glycan array binding signal (z-score),[35],0.051
same,glycan array binding signal (z-score),[36],0.093
same,glycan array binding signal (z-score),[37],-0.787
same,glycan array binding signal (z-score),[38],-0.18
same,glycan array binding signal (z-score),[39],-0.276
same,glycan array binding signal (z-score),[40],0.006
same,glycan array binding signal (z-score),Neu5Ac(a2-3)Gal(b1-4)Glc,-0.488
same,glycan array binding signal (z-score),[41],0.357
same,glycan array binding signal (z-score),[42],-0.23
same,glycan array binding signal (z-score),[43],0.111
